{"source": "PubChem BioAssay AID504832", "about": "(National Center for Advancing Translational Sciences (NCATS), 2011)", "note": "About 18,000 (5.8%) of roughly 310,000 compounds were called active. This list was built around the results that the source calls inconclusive (neither active nor inactive); the mix of calls is not that of the screen. The call rests on the fitted dose curve; in most records, active means well fitted inhibition curve with a large enough effect; inconclusive means small, poorly fitted or top-dose-only effect, or another doubt; inactive means no such curve, though single readings can be large or run the other way. Potencies of inconclusive entries are left out as doubtful fits. Potency means the concentration at half of the fitted maximal effect; tags describe the fitted curve by direction and shape."}
{"assay": "Primary qHTS for delayed death inhibitors of the malarial parasite plastid, 48 hour incubation", "settings": "P. falciparum luciferase growth in erythrocytes; series mostly up to 28.7 µM", "in_short": "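A one-generation exposure of luciferase-tagged malaria parasites in RPMI 1640/Albumax erythrocyte culture, 37 C and 5% CO2. Inhibition is inferred from decreased luminescence after adding detection reagent.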"}
{"smiles": "Cc1nnc(Nc2ccc(C(=O)O)cc2)[nH]c1=O", "Potency": "inactive"}
{"smiles": "CCC(C(=O)N1CCc2ccccc2C1)n1nc(C)n2c(cc3occc32)c1=O", "note": "(stereo not given)", "Potency": "inconclusive [inhibitor, partial curve]"}
{"smiles": "CCn1c(O)c(N=NC(=O)c2ccc(CSc3nncn3C)cc2)c2ccccc21", "Potency": "active: 10.4 µM"}
{"smiles": "CCOc1cccc(NC(=O)c2cccc(F)c2)c1", "Potency": "inactive"}
{"smiles": "COc1ccc(Cn2nnnc2C(c2ccc(N(C)C)cc2)N2CCC(C)CC2)cc1", "note": "(stereo not given)", "Potency": "inconclusive [inhibitor, single point]"}
{"smiles": "CCCCN(C1CCS(=O)(=O)C1)S(=O)(=O)c1ccc(OC)cc1", "note": "(stereo not given)", "Potency": "inactive"}
{"smiles": "O=C(NCCc1cn2ccccc2n1)C1CCCCC1", "Potency": "inactive"}
{"smiles": "CC(C)(C)NS(=O)(=O)c1ccc2nc(NC(=O)Cc3cccs3)sc2c1", "Potency": "inconclusive [inhibitor, single point]"}
{"smiles": "O=C(Nc1ccc(NC(=S)NC(=O)c2ccccc2F)cc1)c1cccs1", "Potency": "inconclusive [inhibitor, partial curve, poor fit]"}
{"smiles": "Cc1c(C(=O)N2CC(C(=O)N3CCCCC3)Oc3ccccc32)oc2ccccc12", "note": "(stereo not given)", "Potency": "inconclusive [inhibitor, single point]"}
{"smiles": "c1cc(-c2nsc(-c3ccncc3)n2)ccn1", "Potency": "inconclusive [inhibitor, single point]"}
{"smiles": "N#Cc1ccc(-c2ccccc2)nc1SCC(=O)c1cc2ccccc2oc1=O", "Potency": "active: 9.28 µM"}
{"smiles": "O=C(CNC(=O)c1ccc(Br)o1)NCc1ccccc1Cl", "Potency": "inactive"}
{"smiles": "O=S(=O)(NN1CCOCC1)c1ccc(Br)s1", "Potency": "inconclusive [inhibitor, partial curve]"}
{"smiles": "CC1CCN(S(=O)(=O)c2cc(C(=O)NC3(C)CCS(=O)(=O)C3)ccc2Br)CC1", "note": "(stereo not given)", "Potency": "inconclusive [inhibitor, single point]"}
{"smiles": "CN1CCN(CC#Cc2ccccc2)CC1CCO", "note": "(stereo not given)", "Potency": "inactive"}
{"smiles": "COc1cc(C(=O)NC(=S)N2CCCCCC2)cc(OC)c1OC", "Potency": "inconclusive [inhibitor, full curve, poor fit]"}
{"smiles": "CC(=O)Nc1ccc(/C=C/c2nc3ccccc3[nH]c2=O)cc1", "Potency": "inactive"}
{"smiles": "CCN1CCc2c(sc(NC(=O)CN3C(=O)c4ccccc4C3=O)c2C(N)=O)C1", "Potency": "inactive"}
{"smiles": "O=C1CN(CC(=O)N2CCOCC2)c2ccccc2O1", "Potency": "inconclusive [inhibitor, full curve, poor fit]"}
{"smiles": "COc1ccc(CNC(=O)CN(C(=O)CCC(=O)Nc2ccccn2)c2ccc3c(c2)OCO3)cc1", "Potency": "inactive"}
{"smiles": "CCOC(=O)c1sc(NC(=O)CSc2nccn2C)nc1C", "Potency": "inactive"}
{"smiles": "COc1ccc(S(=O)(=O)N2CCN(c3nc(-c4cccnc4)nc4ccccc34)CC2)cc1", "Potency": "active: 2.94 µM"}
{"smiles": "CCNC(=O)COC(=O)c1cc(C)nc2ccccc12", "Potency": "inactive"}
{"smiles": "CCN(CC)c1ccc(CNCCc2ccc(F)cc2)cc1", "Potency": "inactive"}
{"smiles": "CCOC(=O)C1=C(c2ccccc2)N(C)C(=O)NC1c1ccc(OC(F)F)c(OC)c1", "note": "(stereo not given)", "Potency": "inconclusive [inhibitor, single point]"}
{"smiles": "CCOC(=O)Nc1ccc2c(c1)N(C(=O)CCN(CC)CC)c1ccccc1CC2", "Potency": "inconclusive [inhibitor, partial curve, poor fit]"}
{"smiles": "Cc1ccc(NC(=O)CN(C)C(=S)NC2CC2)cc1", "Potency": "inconclusive [inhibitor, single point]"}
{"smiles": "Cc1ccc(OCCn2c(C)nc3ccccc32)cc1", "Potency": "inconclusive [inhibitor, partial curve, poor fit]"}
{"smiles": "Cc1ccn2c(c1)nc(=S)n2C(=O)c1ccco1", "Potency": "inactive"}
{"smiles": "O=c1[nH]c(SCc2ccccc2[N+](=O)[O-])nc2nc[nH]c12", "Potency": "inconclusive [inhibitor, single point]"}
{"smiles": "CCC(CO)Oc1cc(NC(=O)c2ccccc2)c2ncn(C(C)C)c2c1", "note": "(stereo not given)", "Potency": "inconclusive [inhibitor, single point]"}
{"smiles": "CN1C(CC(=O)Nc2ccc(Br)cc2)c2ccccc2CC1(C)C", "note": "(stereo not given)", "Potency": "inconclusive [inhibitor, single point]"}
{"smiles": "CCOC(=O)c1c(N)n(CCOC(=O)c2cccs2)c2nc3ccccc3nc12", "Potency": "inconclusive [inhibitor, single point]"}
{"smiles": "O=C(N/N=C\\c1ccc([N+](=O)[O-])s1)C1COc2ccccc2O1", "note": "(stereo not given)", "Potency": "inconclusive [inhibitor, single point]"}
{"smiles": "N#C/C(=C\\c1ccc(Sc2ccc(Cl)cc2)o1)c1nc2ccccc2[nH]1", "Potency": "active: 0.185 µM"}
{"smiles": "COCCn1nnnc1C(c1ccccc1OC)N1CCN(c2ccccc2F)CC1", "note": "(stereo not given)", "Potency": "inconclusive [inhibitor, single point]"}
{"smiles": "CCn1cc(C(=O)N2CCCCC2)c(=O)c2cc(S(=O)(=O)N3CCC(C)CC3)ccc21", "Potency": "inconclusive [inhibitor, full curve, poor fit]"}
{"smiles": "O=C(CSCc1ccc(Br)cc1)Nc1ccc(S(=O)(=O)N2CCCCCC2)cc1", "Potency": "inconclusive [inhibitor, single point]"}
{"smiles": "Cn1cc(CNCc2ccc(-n3cccn3)cc2)c(-c2ccccc2F)n1", "Potency": "inactive"}
{"smiles": "COc1cc2c(cc1OC)CN(C(=O)Cc1ccccc1)CC2", "Potency": "inactive"}
{"smiles": "Cc1ccc(NC(=O)C(C)OC(=O)c2ccc(NS(=O)(=O)c3ccc(F)c(F)c3)cc2)cc1", "note": "(stereo not given)", "Potency": "inactive"}
{"smiles": "CN(c1ccccc1)S(=O)(=O)c1cccc(NC(=O)CCNC(=O)c2ccc(Cl)cc2)c1", "Potency": "inconclusive [inhibitor, single point]"}
{"smiles": "Cc1cc(N/N=C/c2cccc(Br)c2)nc2ccccc12", "Potency": "inconclusive [inhibitor, partial curve, poor fit]"}
{"smiles": "O=C(COC(=O)c1ccc2c(c1Cl)C(=O)c1ccccc1C2=O)NC1CCCCC1", "Potency": "inactive"}
{"smiles": "CCN(CC(=O)Nc1ccccc1C(F)(F)F)C(=O)Cc1ccc2c(c1)CCC2", "Potency": "inconclusive [inhibitor, single point]"}
{"smiles": "COc1ccccc1NC(=O)Nc1ccncc1", "Potency": "inactive"}
{"smiles": "CC1CCCC(NC(=O)CN2CCN(S(=O)(=O)c3ccc(Br)s3)CC2)C1C", "note": "(stereo not given)", "Potency": "inconclusive [inhibitor, single point]"}
{"smiles": "CC1=C(C(=O)Nc2ccccc2)C(c2ccc(C)cc2)N=C(Nc2nc3ccccc3o2)N1", "note": "(stereo not given)", "Potency": "inconclusive [inhibitor, single point]"}
{"smiles": "COc1ccc(S(=O)(=O)Nc2cccc(-c3ccc4nncn4n3)c2)c(OC)c1", "Potency": "inconclusive [inhibitor, single point]"}
{"smiles": "COC(=O)c1c(-c2ccc(OC)cc2)sc2ccccc12", "Potency": "inconclusive [inhibitor, single point]"}
{"smiles": "C(=C\\CSc1ncn[nH]1)/CSc1ncn[nH]1", "Potency": "inactive"}
{"smiles": "CCc1nc2ccc(C(=O)Nc3ccc4c(c3)OCO4)cc2nc1CC", "Potency": "inactive"}
{"smiles": "O=C(CSc1nnc2c(n1)[nH]c1ccc(S(=O)(=O)N3CCOCC3)cc12)Nc1ccccc1Cl", "Potency": "inconclusive [inhibitor, partial curve, poor fit]"}
{"smiles": "Fc1ccc(COc2ccc3ccccc3c2CNc2nn[nH]n2)cc1", "Potency": "inconclusive [inhibitor, partial curve, poor fit]"}
{"smiles": "CSc1nc(SCC(=O)NCC2CCCO2)c2c3c(sc2n1)CN(C)CC3", "note": "(stereo not given)", "Potency": "inconclusive [inhibitor, partial curve]"}
{"smiles": "CCN(CC)C(=O)c1ccccc1NC(=O)c1cccc(S(=O)(=O)N(CC)CC)c1", "Potency": "inconclusive [inhibitor, single point]"}
{"smiles": "C#CCOCCOCCOCCNc1nc(N2CCN(C(=O)[C@H]([C@@H](C)CC)n3cc(CCCN=C(N)N)nn3)CC2)nc(N2CCN(C(=O)[C@H]([C@@H](C)CC)n3cc(CCCN=C(N)N)nn3)CC2)n1", "Potency": "inconclusive [inhibitor, partial curve]"}
{"smiles": "Cc1ccc(Cn2nc(C)c(NC(=O)C3CC3)c2C)cc1", "Potency": "inconclusive [inhibitor, partial curve, poor fit]"}
{"smiles": "CCOC(=O)c1ccc(NC(=O)c2cccc(S(=O)(=O)N3CCOCC3)c2)cc1", "Potency": "active: 6.57 µM"}
{"smiles": "CC(C)C[C@H](NC(=O)c1nc[nH]c1C(=O)NCc1ccccc1)C(=O)OCc1ccccc1", "Potency": "inconclusive [inhibitor, full curve, poor fit]"}
{"smiles": "COc1ccccc1CNS(=O)(=O)c1cc(C(=O)NCc2ccccn2)c(Cl)cc1Cl", "Potency": "inconclusive [inhibitor, single point]"}
{"smiles": "CCOC(=O)C1=C(c2ccccc2)N=c2s/c(=C\\c3ccc(O)cc3)c(=O)n2C1c1cccs1", "note": "(stereo not given)", "Potency": "active: 2.94 µM"}
{"smiles": "Cc1cccc2cc(CN(Cc3ccco3)C(=O)c3ccncc3)c(=O)[nH]c12", "Potency": "inconclusive [inhibitor, partial curve]"}
{"smiles": "Cc1nc2ccccc2n1CC(=O)c1ccc(O)c(O)c1", "Potency": "inconclusive [inhibitor, partial curve]"}
{"smiles": "Cc1ccc(-c2cc(C(=O)OCC(=O)N(C)c3c(N)n(Cc4ccccc4)c(=O)[nH]c3=O)c3ccccc3n2)o1", "Potency": "inconclusive [inhibitor, partial curve]"}
{"smiles": "COc1ccccc1N(C(=O)CNC(=O)c1ccco1)C(C(=O)NCC1CCCO1)c1ccccc1", "note": "(stereo not given)", "Potency": "inactive"}
{"smiles": "Cc1cccc(NC(=O)CCCn2c(=S)[nH]c3ccccc3c2=O)c1", "Potency": "inconclusive [inhibitor, partial curve]"}
{"smiles": "Cc1ccc(S(=O)(=O)N2CCN(C3CCN(Cc4ccccc4)CC3)CC2)cc1", "Potency": "inactive"}
{"smiles": "COc1ccc(-c2cc3ccc(OC(C)C(=O)O)cc3oc2=O)cc1", "note": "(stereo not given)", "Potency": "inactive"}
